# Assay results reported in the supplement of paper PMC12217912.
# This is one part of the list. Sequences were assembled here from the parent chain. Values near 0.05 are background.
# B1: TEV protease; numbered along this chain (parent)
# chain: MGESLFKGPRDYNPISSSICHLTNESDGHTTSLYGIGFGPFIITNKHLFRRNNGTLVVQSLHGVFKVKDTTTLQQHLVDGRDMIIIRMPKDFPPFPQKLKFREPQREERICLVTTNFQTKSMSSMVSDTSCTFPSGDGIFWKHWIQTKDGQCGSPLVSTRDGFIVGIHSASNFTNTNNYFTSVPKNFMELLTNQEAQQWVSGWRLNADSVLWGGHKVFMVKPEEPFQPVKEATQL
# Variants of: B1
# Experiment: raw area under fraction-flipped curve 0-4 h after induction (AUC4h, not background-subtracted), DNA-recorder readout of cleavage of the substrate (dimensionless); higher = more cleavage of the substrate by the protease variant
# Conditions: temperature: 34 °C; time window: 0-4 h after rhamnose induction
# Procedure: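 In vivo DNA recorder in E. coli TOP10(DE3) ΔrhaA at 34 °C. Each TEVp single-site mutant (parent TEVp 0) is paired with a single-site variant of the 7-mer TEVs (canonical ENLYFQ|S). The substrate sits between flexible linkers in a Bxb1-sfGFP-TEVs-SsrA fusion, so cleavage stabilises Bxb1 and speeds flipping of a recombination array, read by NGS. The value is the raw area under the fraction-flipped curve over 0-4 h after rhamnose induction (AUC4h), with ≥20 reads per time point. It is not background-subtracted; inactive controls average about 0.047.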
# 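Also: Bxb1 expression induced with 0.2% (w/v) L-rhamnose at OD600 near 0.5, cultures sampled hourly, flipped fraction per protease–substrate barcode pair counted by paired-end Illumina sequencing.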
Variant,area with substrate ENLYFQC,area with substrate ENLYFQI,area with substrate ENLYFQK,area with substrate ENLYFQL,area with substrate ENLYFQN,area with substrate ENLYFQP,area with substrate ENLYFQS,area with substrate ENLYFQT,area with substrate ENLYFQV,area with substrate ENLYFQW,area with substrate ENLYFQY,area with substrate ENLYFQE,area with substrate ENLYFQG,area with substrate ENLYFQH,area with substrate ENLYFQM,area with substrate ENLYFQQ,area with substrate ENLYFQR,area with substrate ENLYFQF,area with substrate ENLYFQD
N186P,0.0671,0.0556,0.0514,0.0559,0.0596,0.0734,0.08,0.0517,0.0348,0.0558,0.0668,–,–,–,–,–,–,–,–
L190R,0.0819,0.0741,0.0751,0.0723,0.0677,–,0.0907,0.0643,0.0756,0.0591,–,0.0371,0.0953,0.0715,0.0682,0.0689,0.0631,–,–
L191D,0.0736,0.0617,0.0616,0.0386,–,–,0.0592,0.0544,–,0.0541,–,–,–,0.0504,0.0531,–,0.0431,0.0479,–
T192A,0.112,–,0.0533,–,–,–,0.093,–,0.0514,0.0621,0.0748,–,–,–,0.0819,–,0.0603,–,–
Q194L,0.107,–,0.065,0.0616,0.067,0.0541,0.0842,–,0.0492,0.0566,0.0669,–,–,–,0.0575,–,0.067,–,–
Q194T,0.138,0.0559,0.0854,–,0.0673,0.0463,0.11,0.0705,0.0753,0.0763,0.08,–,0.112,–,0.139,–,0.0486,–,0.073
A196K,0.118,0.0642,0.0718,0.0657,0.0796,0.0672,0.106,0.0676,0.0736,0.0732,0.0721,–,0.0859,0.082,0.0975,0.0664,0.0646,0.0746,0.0432
Q198D,0.111,0.059,–,–,0.0756,–,0.0968,0.0612,0.0611,0.0675,–,–,–,0.0799,0.0826,0.111,0.0601,0.0957,0.0753
Q198W,0.0735,–,0.0672,0.0587,0.0494,0.0588,0.0768,0.0592,–,0.0571,0.0817,–,0.0915,0.0742,–,–,0.0565,0.0666,0.0692
A207P,0.0896,0.0635,–,–,0.0846,0.0549,0.1,–,0.0534,0.0654,0.0742,–,0.0903,0.0501,0.0821,–,0.0421,0.0446,0.0778
S209F,0.119,0.0639,0.0668,0.0607,0.0997,0.0577,0.11,0.0673,0.0732,0.0625,0.0863,0.0578,0.103,–,0.0881,–,–,0.0898,0.1
V210L,0.0949,0.0611,0.0518,–,–,–,0.096,0.0427,0.0599,0.0566,0.0752,0.0691,0.112,0.0634,0.0737,–,0.0704,0.0521,–
L211H,0.129,0.0546,–,0.0532,–,0.0929,0.112,–,–,–,–,–,–,–,0.0878,–,0.0617,0.0835,–
L211P,0.0986,–,–,–,0.0749,–,0.0767,–,0.0561,0.0664,–,–,–,–,–,0.0635,–,–,0.0676
W212Q,0.131,0.0587,–,0.057,0.0629,0.0522,0.0985,–,0.0617,0.0315,–,–,–,–,0.0701,–,0.0629,–,0.064
G213L,0.0629,–,0.0457,0.0619,0.0464,0.0535,0.061,0.0415,–,0.0599,0.0525,–,–,–,0.0534,–,0.0409,–,–
V220C,0.134,0.0631,0.0845,0.0552,0.0689,0.05,0.111,–,–,0.0885,0.0693,–,0.0925,0.0709,–,0.0584,0.049,0.0741,0.101
K221V,0.097,0.0589,–,–,0.0618,–,0.0915,0.0723,0.0677,0.0774,0.0626,–,0.0854,–,0.0609,0.0682,0.0723,–,0.0796
E223H,0.0983,0.0635,–,0.0811,0.0811,0.0615,0.096,0.0451,0.0616,0.0555,0.0598,–,0.0982,–,0.0986,–,0.0551,0.0789,0.0694
E223M,0.106,0.0765,0.0811,0.0683,0.0763,0.0731,0.0883,–,0.0647,0.0587,–,–,–,0.0669,–,0.0456,0.0554,–,0.076
P228V,0.113,–,–,–,0.0721,–,0.11,0.0783,–,–,0.0612,–,–,–,–,–,0.0512,0.0924,0.0831
V229G,0.0989,0.0545,0.0499,0.064,0.0767,–,0.108,0.0745,0.0784,–,0.0696,–,0.103,0.072,0.107,0.088,0.0586,–,0.135
V229I,0.114,–,0.0418,–,0.0692,–,0.104,–,0.0616,–,0.101,–,0.0775,–,–,–,–,–,–
K230F,0.102,–,0.0603,0.0595,0.0719,–,0.0954,0.0656,0.0611,0.0553,0.0861,–,–,–,–,–,–,0.076,–
E231A,0.0941,0.0486,0.0739,–,0.0875,–,0.101,0.083,–,–,0.0838,–,0.0984,–,0.0842,–,0.0484,–,–
T233N,0.124,–,0.0721,–,0.0878,0.0782,0.118,–,0.0735,0.0751,–,–,–,–,0.123,–,–,0.115,–
T233R,0.0795,0.0657,0.0501,–,0.0473,–,0.104,0.0623,0.0603,0.0802,0.0784,–,0.102,0.0824,–,–,0.0582,–,–
Q234F,0.11,–,0.0899,0.0585,0.083,–,0.089,0.0718,–,0.073,–,–,0.0755,–,0.071,–,0.05,–,–
G28F,–,0.0574,0.0412,–,0.0694,0.0487,0.0869,–,–,0.0578,0.0538,–,0.0797,0.072,–,–,0.0588,0.0744,0.0678
